# Experimental data as given in PMC4336329 (PLoS ONE, 2015).
# The campaign covered roughly 310,000 compounds. About 14,000 (4.5%) showed an effect of 50% or more. Effects have a minus sign here. The list shows a part of the results.
# Target: human ether-à-go-go-related gene (hERG) potassium channel (human, UniProt Q12809)
# Experiment: primary screen, population patch clamp on CHO cells stably expressing hERG
# 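Note: peak tail current of the secondary pulse compared with the same well before compound.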
# Chain of human ether-à-go-go-related gene (hERG) potassium channel (Q12809 whole entry, looked up): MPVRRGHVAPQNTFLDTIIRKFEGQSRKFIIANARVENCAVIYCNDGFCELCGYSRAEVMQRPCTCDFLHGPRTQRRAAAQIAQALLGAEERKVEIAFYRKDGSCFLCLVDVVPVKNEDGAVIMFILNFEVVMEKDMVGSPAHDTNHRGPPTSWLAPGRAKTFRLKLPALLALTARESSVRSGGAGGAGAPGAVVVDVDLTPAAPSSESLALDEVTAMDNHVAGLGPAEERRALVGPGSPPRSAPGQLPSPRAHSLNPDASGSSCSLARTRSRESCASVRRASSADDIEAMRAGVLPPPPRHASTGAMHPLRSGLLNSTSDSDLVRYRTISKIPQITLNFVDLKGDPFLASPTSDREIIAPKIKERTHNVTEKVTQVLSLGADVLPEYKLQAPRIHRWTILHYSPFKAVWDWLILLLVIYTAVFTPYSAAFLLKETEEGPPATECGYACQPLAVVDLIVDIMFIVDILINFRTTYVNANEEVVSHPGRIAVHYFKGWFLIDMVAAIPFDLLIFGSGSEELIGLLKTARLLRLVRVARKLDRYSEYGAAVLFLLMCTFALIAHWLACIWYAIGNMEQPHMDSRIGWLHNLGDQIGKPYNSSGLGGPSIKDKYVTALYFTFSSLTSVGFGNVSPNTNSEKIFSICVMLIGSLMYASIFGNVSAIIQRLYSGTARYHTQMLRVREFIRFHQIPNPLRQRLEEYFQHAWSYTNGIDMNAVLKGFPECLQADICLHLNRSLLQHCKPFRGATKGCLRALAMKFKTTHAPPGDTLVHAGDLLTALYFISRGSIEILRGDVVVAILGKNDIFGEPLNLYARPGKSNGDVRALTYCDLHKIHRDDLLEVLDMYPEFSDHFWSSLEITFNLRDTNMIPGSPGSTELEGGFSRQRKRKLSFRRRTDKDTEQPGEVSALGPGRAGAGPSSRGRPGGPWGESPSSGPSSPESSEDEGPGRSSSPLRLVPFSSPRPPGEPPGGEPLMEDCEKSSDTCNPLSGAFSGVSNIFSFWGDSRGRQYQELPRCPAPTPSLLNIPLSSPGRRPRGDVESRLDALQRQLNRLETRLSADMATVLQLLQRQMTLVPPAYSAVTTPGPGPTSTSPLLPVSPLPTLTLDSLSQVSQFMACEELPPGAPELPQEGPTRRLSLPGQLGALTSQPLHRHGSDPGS
row,SMILES,"hERG current change (%, negative = inhibition) at 10uM [%]"
1,Cc1cc(Br)ccc1NC(=O)CN(C)C(=O)CSC(=S)N1CCCC1,-15.1
2,COc1cc(OC)nc(Oc2cc(/C=N/O)ccc2OC)n1,0.516
3,COc1ccc(NC(=O)CC2SC3=NCCN3C2=O)cc1 (stereo not shown),29.5
4,COc1cc(CC(=O)Nc2nc(-c3ccc(F)c(F)c3)cs2)cc(OC)c1OC,5.01
5,CCC(=O)N1CCCc2cc(S(=O)(=O)N3CCCc4ccccc43)ccc21,-23.6
6,COc1cc(NC(=S)NC(=O)c2ccccc2F)ccc1NC(=O)c1ccco1,12.3
7,Cc1ccc(C)c(-c2csc(NC(=O)c3c(C)noc3C)n2)c1,-4.93
8,Cc1ccc(-c2nnc3ccc(SCC(=O)NCc4ccco4)nn23)cc1,-6.59
9,O=C(CSc1ncn[nH]1)NCc1ccccc1,-6.75
10,COP(=S)(OC)c1c(C)nn(CCC#N)c1NC(=O)c1ccc(Cl)cc1,15.3
11,COc1ccc(OC)c(NC(=O)CNC(=O)Cn2c(C)cc3ccccc3c2=O)c1,-3.8
12,O=C(c1ccccc1)c1nn(-c2ccc(Cl)cc2)c(=O)cc1C(F)(F)F,4.89
13,O=C1CN(C(=O)c2cc([N+](=O)[O-])ccc2Cl)C(c2ccccc2)c2cc(F)ccc2N1 (stereo not shown),-45.8
14,COc1ccc(C(=O)c2ccc([N+](=O)[O-])cc2)cc1S(=O)(=O)N1CCC(C(=O)O)CC1,5.12
15,COCCn1c(SCC(=O)Nc2nnc(C)s2)nnc1-c1ccncc1,-0.996
16,COc1ccc(NC(=O)CCNS(=O)(=O)c2ccc(NC(C)=O)cc2)cc1Cl,22.8
17,CC(NC(=O)c1noc2c1CCCC2)c1ccccc1 (stereo not shown),-9.85
18,O=C(Nc1cccc(S(=O)(=O)NC2=NCCCCC2)c1)C1COc2ccccc2O1 (stereo not shown),-13.7
19,CCc1cc2c(=O)n(CC(=O)NC3CCCCC3)cnc2s1,4.86
20,c1cc(-c2cc3cc(N4CCOCC4)ccc3o2)cs1,7.74
21,COc1ccc(C(CNC(=O)c2ccc(NS(=O)(=O)c3ccc(F)c(C)c3)cc2)N(C)C)cc1 (stereo not shown),-25.8
22,Cc1cc(C)cc(N(CC(=O)N/N=C/c2ccncc2)S(=O)(=O)c2ccccc2)c1,-76.9

row,SMILES,"hERG current change (%, negative = inhibition) at 10uM [%]"
1,C=CCN(CC(=O)NCc1ccccc1)C(=O)c1csnn1,7.78
2,CN(C)c1ccc(CN2CC=C(c3ccc(F)cc3)CC2)cc1,-69.9
3,COc1ccc(OC)c(Nc2ncnc3c2cnn3-c2cccc(C)c2)c1,9.08
4,Oc1cccc2cccnc12,2.7
5,Cc1ccc(Cn2c(Sc3nnc(C)s3)nc3c2c(=O)[nH]c(=O)n3C)cc1,-46.8
6,CCN(CC)C(=O)c1ccc(NC(=O)CN2CCc3cc(OC)c(OC)cc3C2)cc1,16
7,Cc1sc2nc(CSCC(=O)Nc3cc(F)ccc3F)[nH]c(=O)c2c1C,6.42
8,Cc1cc(N2CC(C)OC(C)C2)nc(C(C)C)n1 (stereo not shown),-6.44
9,C[C@@H]1CC=C[C@H]2[C@H]1C(=O)N(Cc1ccccc1)[C@H]2c1ccc(F)c(-c2ccc(N(C)C)cc2)c1,5.21
10,O=C1C(=O)N(Cc2cccnc2)C(c2cccc(F)c2)/C1=C(/O)c1ccc2c(c1)OCO2 (stereo not shown),21.4
11,O=C(Nc1nc2ccsc2c(=O)s1)c1ccc(F)cc1,-5.72
12,CCCOc1ccc(N2C(=O)CC(SCCN)C2=O)cc1.Cl (stereo not shown),-4.66
13,Cc1ccn(CC(=O)NC2CC(C)(C)Cc3c2cnn3-c2ccc(F)cc2)n1 (stereo not shown),-15
14,O=c1cc(N2CCN(c3cccc(Cl)c3)CC2)[nH]c(=O)n1C1CCCCC1,4.83
15,CC(C)c1ccc(N2C(=O)CC(Sc3nc4ccccc4o3)C2=O)cc1 (stereo not shown),-8.9
16,O=C(CSc1nnc(-c2cccs2)o1)NCC1CN(Cc2ccccc2)CCO1 (stereo not shown),-12.6
17,CC1(c2ccccc2)NC(=O)N(CC(=O)NNC(=O)c2ccccc2)C1=O (stereo not shown),21.3
18,CC(=O)[C@@]1(O)CC[C@H]2[C@@H]3CCC4=CC(=O)CC[C@]4(C)[C@H]3CC[C@@]21C,1.7
19,CC(C)CCN1CCC(Cc2ccccc2)(NC(=O)c2ccccc2)C1=O (stereo not shown),12.4
20,COc1ccc(S(=O)(=O)NC(C)C)cc1-n1cnnn1,9.29
21,CCCCN(C(=O)C(C)Oc1ccc(Br)cc1)c1c(N)n(CC(C)C)c(=O)[nH]c1=O (stereo not shown),-26.2
